Source: a compilation of properties of binary mixtures (doi:10.1016/j.molliq.2015.07.073)
Some of these densities may be calculated back from excess volumes.

Experiment: xn = mol fraction of the nth substance listed
Settings: 101 kPa

CO + C=CC[n+]1ccn(C)c1.N#C[S-]
x1 = 1
Settings	mass density [kg/m3]
298.15 K	786.9
303.15 K	782.2
308.15 K	777.4
313.15 K	772.7
318.15 K	767.9
323.15 K	763.1

CO + CCCC[n+]1ccn(C)c1.N#C[S-]
x1 = 1
Settings	mass density [kg/m3]
293.15 K	791.6
298.15 K	786.9
303.15 K	782.2
308.15 K	777.4
323.15 K	763.1

CO + CCCCn1cc[n+](CCC#N)c1.N#C[S-]
x1 = 1
Settings	mass density [kg/m3]
298.15 K	786.9
303.15 K	782.2
308.15 K	777.4
313.15 K	772.7
318.15 K	767.9

C=CC[n+]1ccn(C)c1.N#C[S-] + CO
mass density [kg/m3]
Settings	x2 = 0	x2 = 0.0972	x2 = 0.2866	x2 = 0.4049	x2 = 0.5184	x2 = 0.6079	x2 = 0.7044	x2 = 0.8016	x2 = 0.8994
293.15 K	–	1161.5	1140.6	1122.4	1098.2	1073.4	–	–	918.2
298.15 K	1167	1158.2	1137.2	–	1094.6	1069.7	1035.7	986.5	914.1
303.15 K	1163.7	1154.9	–	–	1091.1	1066.1	1031.8	982.6	910
308.15 K	1160.6	1151.7	1130.6	1112.1	1087.6	1062.5	1028	–	905.8
313.15 K	1157.3	1148.5	1127.2	–	–	1058.7	1024.4	974.9	901.7
318.15 K	1154.1	1145.3	1123.9	1105.2	1080.6	1055.2	1020.4	971	897.6
323.15 K	1151	1142.2	1120.6	1101.9	1077.1	1051.6	1016.4	967.1	893.5

CCCC[n+]1ccn(C)c1.N#C[S-] + CO
mass density [kg/m3]
Settings	293.15 K	298.15 K	303.15 K	308.15 K	313.15 K	318.15 K	323.15 K
x1 = 0.0167	814.8	810.2	–	801	796.4	–	787.2
x2 = 0	–	–	1066.8	–	–	–	1055
x2 = 0.0951	1067.3	–	1061.3	–	–	–	–
x2 = 0.1943	1060.4	–	1054.3	–	1048.3	–	–
x2 = 0.2882	1053.2	–	1047.1	–	1041	–	1034.9
x2 = 0.3763	1044.9	–	1038.7	–	1032.5	–	1026.3
x2 = 0.4922	1031.3	–	–	–	1018.6	–	–
x2 = 0.6379	–	1001.6	998.2	994.9	991.5	988.2	984.9
x2 = 0.7931	–	954.8	951.2	–	–	940.3	–
x2 = 0.8543	928.4	–	920.7	916.9	–	909.3	905.5
x2 = 0.9042	896.6	–	–	–	880.6	–	872.6
x2 = 0.9455	858.8	854.6	850.3	846	841.8	837.5	833.2

CCCCn1cc[n+](CCC#N)c1.N#C[S-] + CO
mass density [kg/m3]
Settings	x2 = 0	x2 = 0.0687	x2 = 0.1749	x2 = 0.2892	x2 = 0.4013	x2 = 0.5135	x2 = 0.6655	x2 = 0.7342	x2 = 0.8141
293.15 K	1163.7	1159.2	1151.4	–	–	1109	1071	1044.4	1000.6
298.15 K	1160.5	1156	1148.2	1137.4	1123.8	–	1067.4	1040.6	996.6
303.15 K	–	1152.8	1144.9	–	1120.4	1102.2	–	1036.8	992.5
308.15 K	1154.1	–	1141.8	1130.9	–	1098.8	1060.3	–	988.5
313.15 K	1150.9	–	1138.6	1127.7	–	1095.5	1056.7	1029.5	984.6
318.15 K	1147.7	1143.2	1135.3	1124.4	1110.5	–	–	1025.7	–
323.15 K	–	1140	1132.1	1121.1	1107.2	1088.7	1049.6	1022	976.5
